Some of the results follow. Many values rest on one well or one pass, so single values are uncertain.
Key:
Assay in all cases: cell count relative to DMSO control; melanoma cells; higher = more viable cells
Conditions in all cases: library dose: standard library concentration; 72 h
G361 = system: G361
IPC-298 = system: IPC-298
IST-MEL1 = system: IST-MEL1
LB2518-MEL = system: LB2518-MEL
LOXIMVI = system: LOXIMVI
MEL-HO = system: MEL-HO
MZ2-MEL = system: MZ2-MEL
MeWo = system: MeWo
RPMI7951 = system: RPMI7951
RVH-421 = system: RVH-421
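Also: cells treated in 1,536-well plates, then fixed and DAPI-stained, with nuclei counted from automated high-throughput microscope images.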

| Structure (SMILES) | cell count (G361) | cell count (IPC-298) | cell count (IST-MEL1) | cell count (LB2518-MEL) | cell count (LOXIMVI) | cell count (MEL-HO) | cell count (MZ2-MEL) | cell count (MeWo) | cell count (RPMI7951) | cell count (RVH-421) |
| --- | --- | --- | --- | --- | --- | --- | --- | --- | --- | --- |
| OCc1c[nH]c2ccccc12 [Indole-3-carbinol] + Cn1cc(/C=C2\C(=O)Nc3cccnc32)c2ccccc21 [GW441756] (first compound 4 µM, partner dose 2 µM) | 113% | 95% | 96% | 93.2% | 104% | 114% | 94.3% | 88.4% | 104% | 107% |
| OCc1c[nH]c2ccccc12 [Indole-3-carbinol] + O=C1NC(=O)/C(=C/c2ccc(-c3ccc(F)cc3O)o2)S1 [AS252424] (first compound 4 µM, partner dose 5 µM) | 77.5% | 79% | 90% | 79.4% | 106% | 74.3% | 85.1% | 84.1% | 89.9% | 41.7% |
| OCc1c[nH]c2ccccc12 [Indole-3-carbinol] + N#Cc1c(O)c2c(-c3ccc(-c4ccccc4O)cc3)csc2[nH]c1=O [A769662] (first compound 4 µM, partner dose 10 µM) | 104% | 103% | 88.6% | 103% | 91.7% | 100% | 117% | 98.8% | 102% | 113% |
| C#Cc1cccc(Nc2ncnc3cc(OCCOC)c(OCCOC)cc23)c1 [erlotinib] + O=C(Nc1cccc(Cl)c1)Nc1ncc(CCNc2ncnc3ccsc23)s1 [SNS314] (first compound 4 µM, partner dose 0.004 µM) | 54.8% | 41.7% | 42.7% | 57% | 67.3% | 63.8% | 62.7% | 46.4% | 44.8% | 51.3% |
| O=C(CCCCCCC(=O)Nc1ccccc1)NO [vorinostat] + Oc1nc(-c2ccc(C(F)(F)F)cc2)nc2c1CSCC2 [XAV939] (first compound 0.4 µM, partner dose 10 µM) | 78.9% | 82.5% | 99.9% | 72.6% | 96.6% | 101% | 73.2% | 74.3% | 65.3% | 84.8% |
| OCc1c[nH]c2ccccc12 [Indole-3-carbinol] + O=S(=O)(c1ccccc1)N(CC(F)(F)F)c1ccc(C(O)(C(F)(F)F)C(F)(F)F)cc1 [T0901317] (first compound 4 µM, partner dose 7 µM) | 77.6% | 103% | 92.1% | 105% | 102% | 92.6% | 98.3% | 88.3% | 131% | 126% |
| COCC[n+]1c2c(n(Cc3cnccn3)c1C)C(=O)c1ccccc1C2=O + COc1cc(Nc2ncc(F)c(Nc3ccc4c(n3)NC(=O)C(C)(C)O4)n2)cc(OC)c1OC [Tamatinib] (first compound 0.002 µM, partner dose 2 µM) | 67% | 40.4% | 41.5% | 17.5% | 22.8% | 70.8% | 29.5% | 48.5% | 48.5% | 75.8% |
| OCc1c[nH]c2ccccc12 [Indole-3-carbinol] + CO[C@@H]1[C@H](N(C)C(=O)c2ccccc2)C[C@H]2O[C@]1(C)n1c3ccccc3c3c4c(c5c6ccccc6n2c5c31)C(=O)NC4 [Midostaurin] (first compound 4 µM, partner dose 0.4 µM) | 46.4% | 66% | 70.2% | 70% | 56.6% | 86.8% | 54.8% | 87.2% | 56.2% | 45.4% |
| OCc1c[nH]c2ccccc12 [Indole-3-carbinol] + COc1cc(Nc2ncc(F)c(Nc3ccc4c(n3)NC(=O)C(C)(C)O4)n2)cc(OC)c1OC [Tamatinib] (first compound 4 µM, partner dose 2 µM) | 84.4% | 86.1% | 78.3% | 81.4% | 33.3% | 78.7% | 63.6% | 68.3% | 49.5% | 95.8% |
| Cn1c(Nc2ccc(C(F)(F)F)cc2)nc2cc(Oc3ccnc(-c4ncc(C(F)(F)F)[nH]4)c3)ccc21 + CC1(C)NC(=O)N(c2ccc([N+](=O)[O-])c(C(F)(F)F)c2)C1=O [nilutamide] (first compound 0.4 µM, partner dose 5 µM) | 25% | 50.1% | 82.1% | 41.6% | 55.7% | 63.8% | 66.5% | 63.9% | 59.7% | 57.4% |
| Cn1c(Nc2ccc(C(F)(F)F)cc2)nc2cc(Oc3ccnc(-c4ncc(C(F)(F)F)[nH]4)c3)ccc21 + COc1ccc(-c2ccc3c(N4CCOCC4)nc(N4C[C@@H](C)O[C@@H](C)C4)nc3n2)cc1CO [KU0063794] (first compound 0.4 µM, partner dose 0.1 µM) | 14.5% | 43.8% | 77.6% | 32.1% | 73.5% | 46.6% | 45.7% | 57.3% | 46% | 54.3% |
| Nc1cccc2c1CN(C1CCC(=O)NC1=O)C2=O (stereo not given) [lenalidomide] + O=C(CCCCCCC(=O)Nc1ccccc1)NO [vorinostat] (first compound 5 µM, partner dose 0.4 µM) | 71% | 107% | 111% | 70.2% | 71% | 86.2% | 117% | 73.5% | 59.4% | 103% |
| COCC[n+]1c2c(n(Cc3cnccn3)c1C)C(=O)c1ccccc1C2=O + Cn1nnc2c(C(N)=O)ncn2c1=O [temozolomide] (first compound 0.002 µM, partner dose 10 µM) | 82.5% | 48.9% | 50% | 22.4% | 45.9% | 94.6% | 26.3% | 31.7% | 34.1% | 100% |
| Cn1c(Nc2ccc(C(F)(F)F)cc2)nc2cc(Oc3ccnc(-c4ncc(C(F)(F)F)[nH]4)c3)ccc21 + CC(C)(C)c1cnc(CSc2cnc(NC(=O)C3CCNCC3)s2)o1 [SNS-032] (first compound 0.4 µM, partner dose 0.05 µM) | 20.2% | 47.7% | 60.4% | 22.8% | 54.8% | 62.4% | 45% | 64.8% | 23.6% | 46.1% |
| Cn1c(Nc2ccc(C(F)(F)F)cc2)nc2cc(Oc3ccnc(-c4ncc(C(F)(F)F)[nH]4)c3)ccc21 + O=C1NC(=O)/C(=C/c2ccc(-c3ccc(F)cc3O)o2)S1 [AS252424] (first compound 0.4 µM, partner dose 5 µM) | 15.3% | 43.5% | 85.9% | 33.5% | 67.3% | 57.3% | 60.6% | 61.7% | 50% | 43.7% |
| Clc1ccc(Nc2nnc(Cc3ccncc3)c3ccccc23)cc1 [vatalanib] + O=S(=O)(c1ccccc1)N(CC(F)(F)F)c1ccc(C(O)(C(F)(F)F)C(F)(F)F)cc1 [T0901317] (first compound 10 µM, partner dose 7 µM) | 54% | 66.7% | 73.4% | 86.5% | 89.2% | 63% | 74.9% | 52.8% | 88.6% | 76.6% |
| COCC[n+]1c2c(n(Cc3cnccn3)c1C)C(=O)c1ccccc1C2=O + NC(=O)Nc1cc(-c2cccc(F)c2)sc1C(=O)N[C@H]1CCCNC1 [AZD7762] (first compound 0.002 µM, partner dose 0.1 µM) | 72.1% | 55.1% | 54.4% | 23% | 73.7% | 82.5% | 34.7% | 25.6% | 27.2% | 107% |
| O=C(CCCCCCC(=O)Nc1ccccc1)NO [vorinostat] + Cn1cc(/C=C2\C(=O)Nc3cccnc32)c2ccccc21 [GW441756] (first compound 0.4 µM, partner dose 2 µM) | 90.9% | 86.5% | 110% | 87.9% | 76.6% | 98.1% | 90.4% | 75.7% | 80% | 103% |
| Clc1ccc(Nc2nnc(Cc3ccncc3)c3ccccc23)cc1 [vatalanib] + CN(NC(=O)CC(=O)NN(C)C(=S)c1ccccc1)C(=S)c1ccccc1 [STA4783] (first compound 10 µM, partner dose 0.03 µM) | 43.4% | 71.4% | 81.3% | 70% | 79.5% | 49.4% | 91.1% | 23.8% | 84.1% | 192% |
| C#Cc1cccc(Nc2ncnc3cc(OCCOC)c(OCCOC)cc23)c1 [erlotinib] + O=c1cc(-c2cccc3c2Sc2ccccc2S3)oc(N2CCOCC2)c1 [KU55933] (first compound 4 µM, partner dose 5 µM) | 61.4% | 71.1% | 96.5% | 64.9% | 78.4% | 77.4% | 68.5% | 68.7% | 65.3% | 79% |
| OCc1c[nH]c2ccccc12 [Indole-3-carbinol] + COc1ccc(-c2ccc3c(N4CCOCC4)nc(N4C[C@@H](C)O[C@@H](C)C4)nc3n2)cc1CO [KU0063794] (first compound 4 µM, partner dose 0.1 µM) | 92.9% | 70.5% | 85.1% | 100% | 103% | 78.2% | 73.4% | 87.3% | 89.5% | 86.6% |
| OCc1c[nH]c2ccccc12 [Indole-3-carbinol] + Cc1cc(N2CCOCC2)cc2[nH]c(-c3c(NC[C@@H](O)c4cccc(Cl)c4)cc[nH]c3=O)nc12 [BMS536924] (first compound 4 µM, partner dose 1 µM) | 75.5% | 86.8% | 101% | 82.6% | 101% | 106% | 134% | 80.4% | 93.8% | 81.3% |
| C#Cc1cccc(Nc2ncnc3cc(OCCOC)c(OCCOC)cc23)c1 [erlotinib] + COc1ccc2c(c1)CCC1C2CCC2(C)C(NCCCCCCN3C(=O)C=CC3=O)CCC12 [U73122] (first compound 4 µM, partner dose 2 µM) | 40.3% | 62.1% | 75.1% | 61.3% | 39.4% | 67.9% | 72.8% | 49.3% | 16.9% | 65.2% |
